No constants are given. Whether binding was seen depends on the method and setting. Binding seen in cells or lysates may run through a third protein. Some binding calls cover weakened binding; strength is not graded here. Tags and fused reporters may be left off the sequences shown.
T1: nYFP-PIP2;4 (Arabidopsis) (UniProt Q9FF53)
T1 sequence: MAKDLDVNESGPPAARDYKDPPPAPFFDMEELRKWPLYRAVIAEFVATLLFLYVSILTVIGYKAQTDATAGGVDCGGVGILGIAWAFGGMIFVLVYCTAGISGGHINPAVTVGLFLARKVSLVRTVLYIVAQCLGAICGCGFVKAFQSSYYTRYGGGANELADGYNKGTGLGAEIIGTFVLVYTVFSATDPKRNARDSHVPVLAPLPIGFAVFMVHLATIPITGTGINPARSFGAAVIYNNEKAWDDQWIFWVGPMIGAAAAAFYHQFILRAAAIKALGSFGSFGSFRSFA

T2: cYFP-PIP2;4 (Arabidopsis) (UniProt Q9FF53)
T2 sequence: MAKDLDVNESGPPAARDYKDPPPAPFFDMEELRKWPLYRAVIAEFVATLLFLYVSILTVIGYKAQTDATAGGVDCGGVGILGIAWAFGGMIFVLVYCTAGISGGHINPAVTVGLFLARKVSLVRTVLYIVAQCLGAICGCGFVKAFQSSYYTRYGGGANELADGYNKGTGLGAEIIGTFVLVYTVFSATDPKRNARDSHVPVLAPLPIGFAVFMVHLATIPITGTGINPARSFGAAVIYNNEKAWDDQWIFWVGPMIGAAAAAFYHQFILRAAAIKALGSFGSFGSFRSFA

T3: SIRK1-cYFP (Arabidopsis) (UniProt Q0WR59)
T3 sequence: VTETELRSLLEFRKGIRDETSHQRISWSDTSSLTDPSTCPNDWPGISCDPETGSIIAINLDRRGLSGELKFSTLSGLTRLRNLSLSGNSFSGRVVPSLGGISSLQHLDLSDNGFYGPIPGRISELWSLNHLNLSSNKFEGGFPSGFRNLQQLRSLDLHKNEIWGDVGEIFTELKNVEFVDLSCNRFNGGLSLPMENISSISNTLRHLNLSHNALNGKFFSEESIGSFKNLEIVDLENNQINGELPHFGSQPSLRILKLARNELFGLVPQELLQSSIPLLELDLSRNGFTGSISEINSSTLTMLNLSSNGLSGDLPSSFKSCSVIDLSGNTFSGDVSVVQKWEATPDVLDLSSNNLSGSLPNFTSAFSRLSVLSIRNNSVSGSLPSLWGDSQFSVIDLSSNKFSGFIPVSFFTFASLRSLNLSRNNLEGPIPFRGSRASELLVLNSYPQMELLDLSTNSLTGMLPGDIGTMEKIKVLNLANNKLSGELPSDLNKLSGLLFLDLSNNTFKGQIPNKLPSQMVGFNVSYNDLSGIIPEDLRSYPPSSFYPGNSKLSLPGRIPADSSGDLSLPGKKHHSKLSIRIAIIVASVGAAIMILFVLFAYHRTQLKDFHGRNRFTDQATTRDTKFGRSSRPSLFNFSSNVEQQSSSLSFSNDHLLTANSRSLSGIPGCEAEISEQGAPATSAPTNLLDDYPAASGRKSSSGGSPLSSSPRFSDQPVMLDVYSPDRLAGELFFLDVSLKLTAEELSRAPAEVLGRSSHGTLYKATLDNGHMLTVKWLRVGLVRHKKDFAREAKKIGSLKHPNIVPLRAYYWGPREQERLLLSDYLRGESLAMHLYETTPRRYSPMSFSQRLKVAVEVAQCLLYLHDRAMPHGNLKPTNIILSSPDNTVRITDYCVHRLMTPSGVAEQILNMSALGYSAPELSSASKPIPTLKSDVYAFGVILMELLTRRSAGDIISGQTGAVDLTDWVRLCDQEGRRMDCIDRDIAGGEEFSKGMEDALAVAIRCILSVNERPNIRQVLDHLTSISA


How the values were obtained:
Experiment in all cases: split reporter; ratiometric BiFC (rBiFC 2in1 vectors), transient expression in Nicotiana benthamiana leaves for 2 days; YFP/RFP ratio from 10-30 cells; ratios greater than 1 taken as interaction
[1] = target: T1, nYFP-PIP2;4 (Arabidopsis)
[2] = target: T2, cYFP-PIP2;4 (Arabidopsis)
SIRK1-cYFP (Arabidopsis) = target: T3, SIRK1-cYFP (Arabidopsis)

| binding [1] | binding [2] | binding (SIRK1-cYFP (Arabidopsis)) | Binder |
| --- | --- | --- | --- |
| binds |  |  | SIRK1-cYFP (receptor, UniProt Q0WR59 22-1048) VTETELRSLLEFRKGIRDETSHQRISWSDTSSLTDPSTCPNDWPGISCDPETGSIIAINLDRRGLSGELKFSTLSGLTRLRNLSLSGNSFSGRVVPSLGGISSLQHLDLSDNGFYGPIPGRISELWSLNHLNLSSNKFEGGFPSGFRNLQQLRSLDLHKNEIWGDVGEIFTELKNVEFVDLSCNRFNGGLSLPMENISSISNTLRHLNLSHNALNGKFFSEESIGSFKNLEIVDLENNQINGELPHFGSQPSLRILKLARNELFGLVPQELLQSSIPLLELDLSRNGFTGSISEINSSTLTMLNLSSNGLSGDLPSSFKSCSVIDLSGNTFSGDVSVVQKWEATPDVLDLSSNNLSGSLPNFTSAFSRLSVLSIRNNSVSGSLPSLWGDSQFSVIDLSSNKFSGFIPVSFFTFASLRSLNLSRNNLEGPIPFRGSRASELLVLNSYPQMELLDLSTNSLTGMLPGDIGTMEKIKVLNLANNKLSGELPSDLNKLSGLLFLDLSNNTFKGQIPNKLPSQMVGFNVSYNDLSGIIPEDLRSYPPSSFYPGNSKLSLPGRIPADSSGDLSLPGKKHHSKLSIRIAIIVASVGAAIMILFVLFAYHRTQLKDFHGRNRFTDQATTRDTKFGRSSRPSLFNFSSNVEQQSSSLSFSNDHLLTANSRSLSGIPGCEAEISEQGAPATSAPTNLLDDYPAASGRKSSSGGSPLSSSPRFSDQPVMLDVYSPDRLAGELFFLDVSLKLTAEELSRAPAEVLGRSSHGTLYKATLDNGHMLTVKWLRVGLVRHKKDFAREAKKIGSLKHPNIVPLRAYYWGPREQERLLLSDYLRGESLAMHLYETTPRRYSPMSFSQRLKVAVEVAQCLLYLHDRAMPHGNLKPTNIILSSPDNTVRITDYCVHRLMTPSGVAEQILNMSALGYSAPELSSASKPIPTLKSDVYAFGVILMELLTRRSAGDIISGQTGAVDLTDWVRLCDQEGRRMDCIDRDIAGGEEFSKGMEDALAVAIRCILSVNERPNIRQVLDHLTSISA |
| binds |  |  | SIRK1S744D-cYFP (receptor, UniProt Q0WR59 22-1048) VTETELRSLLEFRKGIRDETSHQRISWSDTSSLTDPSTCPNDWPGISCDPETGSIIAINLDRRGLSGELKFSTLSGLTRLRNLSLSGNSFSGRVVPSLGGISSLQHLDLSDNGFYGPIPGRISELWSLNHLNLSSNKFEGGFPSGFRNLQQLRSLDLHKNEIWGDVGEIFTELKNVEFVDLSCNRFNGGLSLPMENISSISNTLRHLNLSHNALNGKFFSEESIGSFKNLEIVDLENNQINGELPHFGSQPSLRILKLARNELFGLVPQELLQSSIPLLELDLSRNGFTGSISEINSSTLTMLNLSSNGLSGDLPSSFKSCSVIDLSGNTFSGDVSVVQKWEATPDVLDLSSNNLSGSLPNFTSAFSRLSVLSIRNNSVSGSLPSLWGDSQFSVIDLSSNKFSGFIPVSFFTFASLRSLNLSRNNLEGPIPFRGSRASELLVLNSYPQMELLDLSTNSLTGMLPGDIGTMEKIKVLNLANNKLSGELPSDLNKLSGLLFLDLSNNTFKGQIPNKLPSQMVGFNVSYNDLSGIIPEDLRSYPPSSFYPGNSKLSLPGRIPADSSGDLSLPGKKHHSKLSIRIAIIVASVGAAIMILFVLFAYHRTQLKDFHGRNRFTDQATTRDTKFGRSSRPSLFNFSSNVEQQSSSLSFSNDHLLTANSRSLSGIPGCEAEISEQGAPATSAPTNLLDDYPAASGRKSSSGGSPLSSSPRFSDQPVMLDVYDPDRLAGELFFLDVSLKLTAEELSRAPAEVLGRSSHGTLYKATLDNGHMLTVKWLRVGLVRHKKDFAREAKKIGSLKHPNIVPLRAYYWGPREQERLLLSDYLRGESLAMHLYETTPRRYSPMSFSQRLKVAVEVAQCLLYLHDRAMPHGNLKPTNIILSSPDNTVRITDYCVHRLMTPSGVAEQILNMSALGYSAPELSSASKPIPTLKSDVYAFGVILMELLTRRSAGDIISGQTGAVDLTDWVRLCDQEGRRMDCIDRDIAGGEEFSKGMEDALAVAIRCILSVNERPNIRQVLDHLTSISA |

Continued, binder first:

| Binder | binding [1] | binding [2] | binding (SIRK1-cYFP (Arabidopsis)) |
| --- | --- | --- | --- |
| SIRK1S744A-cYFP (receptor, UniProt Q0WR59 22-1048) VTETELRSLLEFRKGIRDETSHQRISWSDTSSLTDPSTCPNDWPGISCDPETGSIIAINLDRRGLSGELKFSTLSGLTRLRNLSLSGNSFSGRVVPSLGGISSLQHLDLSDNGFYGPIPGRISELWSLNHLNLSSNKFEGGFPSGFRNLQQLRSLDLHKNEIWGDVGEIFTELKNVEFVDLSCNRFNGGLSLPMENISSISNTLRHLNLSHNALNGKFFSEESIGSFKNLEIVDLENNQINGELPHFGSQPSLRILKLARNELFGLVPQELLQSSIPLLELDLSRNGFTGSISEINSSTLTMLNLSSNGLSGDLPSSFKSCSVIDLSGNTFSGDVSVVQKWEATPDVLDLSSNNLSGSLPNFTSAFSRLSVLSIRNNSVSGSLPSLWGDSQFSVIDLSSNKFSGFIPVSFFTFASLRSLNLSRNNLEGPIPFRGSRASELLVLNSYPQMELLDLSTNSLTGMLPGDIGTMEKIKVLNLANNKLSGELPSDLNKLSGLLFLDLSNNTFKGQIPNKLPSQMVGFNVSYNDLSGIIPEDLRSYPPSSFYPGNSKLSLPGRIPADSSGDLSLPGKKHHSKLSIRIAIIVASVGAAIMILFVLFAYHRTQLKDFHGRNRFTDQATTRDTKFGRSSRPSLFNFSSNVEQQSSSLSFSNDHLLTANSRSLSGIPGCEAEISEQGAPATSAPTNLLDDYPAASGRKSSSGGSPLSSSPRFSDQPVMLDVYAPDRLAGELFFLDVSLKLTAEELSRAPAEVLGRSSHGTLYKATLDNGHMLTVKWLRVGLVRHKKDFAREAKKIGSLKHPNIVPLRAYYWGPREQERLLLSDYLRGESLAMHLYETTPRRYSPMSFSQRLKVAVEVAQCLLYLHDRAMPHGNLKPTNIILSSPDNTVRITDYCVHRLMTPSGVAEQILNMSALGYSAPELSSASKPIPTLKSDVYAFGVILMELLTRRSAGDIISGQTGAVDLTDWVRLCDQEGRRMDCIDRDIAGGEEFSKGMEDALAVAIRCILSVNERPNIRQVLDHLTSISA | no binding |  |  |
| QSK1S621DS626D-nYFP (receptor, UniProt Q9M8T0 24-627) SDLESDRRALLAVRNSVRGRPLLWNMSASSPCNWHGVHCDAGRVTALRLPGSGLFGSLPIGGIGNLTQLKTLSLRFNSLSGPIPSDFSNLVLLRYLYLQGNAFSGEIPSLLFTLPSIIRINLGENKFSGRIPDNVNSATRLVTLYLERNQLSGPIPEITLPLQQFNVSSNQLNGSIPSSLSSWPRTAFEGNTLCGKPLDTCEAESPNGGDAGGPNTPPEKKDSDKLSAGAIVGIVIGCVVGLLLLLLILFCLCRKRKKEENVPSRNVEAPVAAATSSAAIPKETVVVVPPAKATGSESGAVNKDLTFFVKSFGEFDLDGLLKASAEVLGKGTVGSSYKASFEHGLVVAVKRLRDVVVPEKEFRERLHVLGSMSHANLVTLIAYYFSRDEKLLVFEYMSKGSLSAILHGNKGNGRTPLNWETRAGIALGAARAISYLHSRDGTTSHGNIKSSNILLSDSYEAKVSDYGLAPIISSTSAPNRIDGYRAPEITDARKISQKADVYSFGVLILELLTGKSPTHQQLNEEGVDLPRWVQSVTEQQTPSDVLDPELTRYQPEGNENIIRLLKIGMSCTAQFPDSRPSMAEVTRLIEEVSHSSGDPNPVDD |  | binds | binds |
| QSK1S621AS626A-nYFP (receptor, UniProt Q9M8T0 24-627) SDLESDRRALLAVRNSVRGRPLLWNMSASSPCNWHGVHCDAGRVTALRLPGSGLFGSLPIGGIGNLTQLKTLSLRFNSLSGPIPSDFSNLVLLRYLYLQGNAFSGEIPSLLFTLPSIIRINLGENKFSGRIPDNVNSATRLVTLYLERNQLSGPIPEITLPLQQFNVSSNQLNGSIPSSLSSWPRTAFEGNTLCGKPLDTCEAESPNGGDAGGPNTPPEKKDSDKLSAGAIVGIVIGCVVGLLLLLLILFCLCRKRKKEENVPSRNVEAPVAAATSSAAIPKETVVVVPPAKATGSESGAVNKDLTFFVKSFGEFDLDGLLKASAEVLGKGTVGSSYKASFEHGLVVAVKRLRDVVVPEKEFRERLHVLGSMSHANLVTLIAYYFSRDEKLLVFEYMSKGSLSAILHGNKGNGRTPLNWETRAGIALGAARAISYLHSRDGTTSHGNIKSSNILLSDSYEAKVSDYGLAPIISSTSAPNRIDGYRAPEITDARKISQKADVYSFGVLILELLTGKSPTHQQLNEEGVDLPRWVQSVTEQQTPSDVLDPELTRYQPEGNENIIRLLKIGMSCTAQFPDSRPSMAEVTRLIEEVSHSSGAPNPVAD |  | binds | binds |

Source: PMC6683012
